# Laboratory results: PubChem BioAssay (Tox21)
# Where “and” joins values, the source holds several entries; their conditions need not be identical. Equal entries are not always repeated. The shares of active, inactive and inconclusive entries below differ from those in the screen. Where a call stands in place of a potency, no number is given. For some assays here: Potencies beside an inconclusive call are fits to weak or partial responses and may not hold up. Some compounds were tested as several samples or in several runs, with calls that do not always agree. Calls of active or inactive are those of the source. Unless noted, calls follow the shape of the dose curve; as a rule, active = well fitted curve in the direction sought with a large enough effect in the repeat runs; inconclusive = weak or mixed curves; inactive = no such curve, though single readings can be large; an effect the other way counts as inactive or inconclusive.
# Tests used:
# [1] = biological target: Androgen receptor (Homo sapiens) (UniProt P10275); test: qHTS assay to identify small molecule antagonists of the androgen receptor (AR) signaling pathway (AID 743035; active = well fitted inhibition curve with a large enough effect in the signal ratio in the repeat runs, not every such curve was filed as active; inconclusive = weak or mixed curves, or effect the other way; inactive = no such curve, though single readings can be large or run the other way; the % refers to the signal ratio); conditions: HEK293 AR-UAS-bla, R1881-stimulated, beta-lactamase FRET, 16 h; activity change, negative = inhibition: at 58.5 µM (top of the series) unless noted
# In short: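 Steps: seed AR-UAS-bla GripTite HEK293 cells, incubate 4 h at 37C; pin in test compound, then add agonist R1881; incubate 16 h at 37C; add LiveBLAzer B/G FRET substrate, 2 h at room temperature; read fluorescence.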
# [2] = qHTS assay to identify small molecule antagonists of the thyroid receptor (TR) signaling pathway (AID 743065); also: nearly all actives have a fitted effect of over 55% in size; also: potency is read from the fitted curve at half-maximal effect
# In short: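 GH3.TRE-Luc rat pituitary cells carrying two TR response elements driving luciferase were plated for 4 h, given compound plus 1 nM T3 (final), and incubated 23.5 h at 37 C. ONE-Glo luminescence measured reporter inhibition; CellTiter-Fluor fluorescence tracked cytotoxicity.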
# [3] = qHTS assay to identify small molecule antagonists of the retinoid acid receptor (RAR) signaling pathway - cell viability counter screen (AID 1159551); also: nearly all actives have a fitted effect of over 35% in size; also: potency is read from the fitted curve at half-maximal effect
# In short: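 Cells (C3RL4) are plated, incubated overnight, dosed with compound in DMSO, then given retinol at 1 uM final. After 6 h at 37 C, CellTiter-Glo is added and luminescence read following 30 min at room temperature.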
# [4] = biological target: Thyrotropin receptor (Homo sapiens) (UniProt P16473); test: qHTS assay to identify small molecule agonists of the thyroid stimulating hormone receptor (TSHR) signaling pathway (AID 1224843; calls by dose curve; also: nearly all actives have a fitted effect of over 45% in size; also: potency is read from the fitted curve at half-maximal effect); conditions: TSHR-HEK293 cells, cAMP HTRF, agonist mode, 30 min; activation: at 92.4 µM (top of the series) unless noted
# In short: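 Compounds are titrated over 15 concentrations, in triplicate, onto TSHR-HEK293 cells seeded at 800/well. Plates sit 30 min at room temperature before cAMP-d2 and anti-cAMP cryptate are added; signal is read after a further hour.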
# [5] = A CellTox Green Cytotoxicity Assay to monitor cytotoxicity in HEK293 cells - 24 hour (AID 1224875); also: nearly all actives have a fitted effect of over 45% in size; also: potency is read from the fitted curve at half-maximal effect
# In short: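 Cells (HEK293, 600/well) and dye reagent are dispensed together. After 5 h at 37 C, 23 nL compound is pinned in. Plates stay at 37 C for 40 h with fluorescence read at 0h, 8h, 16h, 24h, 32h and 40h.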
# [6] = Human pregnane X receptor (PXR) small molecule agonists, qHTS cell viability counter screen (AID 1346977); also: nearly all actives have a fitted effect of over 50% in size
# In short: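 In each well, the PXR reporter HepG2 line was checked for viability: CellTiter-Fluor reagent added 23hr post-dosing, fluorescence read after 1hr incubation at 37C.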
# [7] = qHTS assay to identify small molecule agonists of the vitamin D receptor (VDR) signaling pathway - cell viability counter screen (AID 743224); also: nearly all actives have a fitted effect of over 50% in size
# In short: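 Cells: VDR-bla, 2,000/well, settled 4 h. Treatment: compounds in DMSO, 16 h, 37C/5% CO2. Readout: CellTiter-Glo luminescence after 30 min RT.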
# [8] = A CellTox Green Cytotoxicity Assay to monitor cytotoxicity in HepG2 cells - 16 hour (AID 1224876); also: potency is read from the fitted curve at half-maximal effect; nearly all actives have a fitted effect of over 45% in size
# In short: (§1)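 Cells and non-lytic dye reagent are dispensed together (600 HepG2 cells/well) and incubated 5 h before DMSO compound transfer. Kinetic fluorescence is then recorded in the same wells during 40 h at 37 C.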
# [9] = A CellTox Green Cytotoxicity Assay to monitor cytotoxicity in HepG2 cells - 32 hour (AID 1224883); also: nearly all actives have a fitted effect of over 50% in size; also: potency is read from the fitted curve at half-maximal effect
# In short: as §1
# [10] = biological target: Estrogen receptor (Homo sapiens) (UniProt P03372); test: qHTS assay to identify small molecule antagonists of the estrogen receptor alpha (ER-alpha) signaling pathway (AID 743069; active = well fitted curve in the direction sought with a large enough effect in the signal ratio in the repeat runs, not every such curve was filed as active; inconclusive = weak or mixed curves, or effect the other way; inactive = no such curve, though single readings can be large or run the other way; the % refers to the signal ratio); conditions: HEK293 ER-alpha-UAS-bla, beta-lactamase ratio, antagonist mode; activity, negative = inhibition: at 69.4 µM (top of the series) unless noted
# In short: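 Screening used a UAS-driven beta-lactamase reporter integrated into HEK293 cells expressing ER-alpha, stimulated with 17beta-estradiol alongside test compounds over 18 hr at 37C; signal came from LiveBLAzer B/G FRET fluorescence.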
# [11] = biological target: Aryl hydrocarbon receptor (Homo sapiens) (UniProt P35869); test: qHTS assay to identify small molecule that activate the aryl hydrocarbon receptor (AhR) signaling pathway (AID 743085); also: nearly all actives have a fitted effect of over 15% in size; also: potency is read from the fitted curve at half-maximal effect;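 as to activation: HG2L7.5c1 human HepG2 liver cells with stably integrated DRE-driven firefly reporter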
# In short: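 Stably transfected human liver carcinoma cells (HG2L7.5c1; 20 DRE-firefly luciferase) were incubated 5 h, dosed, and kept 24 h at 37C. Agonism was scored from increased luciferase luminescence.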
# [12] = qHTS assay for small molecule agonists of the p53 signaling pathway - cell viability (AID 651633; calls by dose curve;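 also: p53RE-bla HCT reporter cells with a stable beta-lactamase p53 reporter; nearly all actives have a fitted effect of over 30% in size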)
# In short: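 p53RE-bla cells, seeded at 4,000 per well and rested 5 h at 37 C/5% CO2, received compounds in DMSO for 16 h at 37 C. CellTiter-Glo was then added, and luminescence was read after 30 min at room temperature to gauge cytotoxicity.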
# [13] = qHTS assay to identify small molecule antagonists of the TGF-beta/Smad signaling pathway - cell viability counter screen (AID 1346824); also: potency is read from the fitted curve at half-maximal effect; nearly all actives have a fitted effect of over 50% in size
# In short: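 SBE-bla HEK 293T cells were plated overnight at 37 C, then given compounds in DMSO plus TGF-beta1 (added as 0.25 ng/mL solution) for 5 hr. After the bla read, CellTiter-Glo was added to the same wells and luminescence read after 30 min at room temperature.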
# [14] = qHTS assay to identify small molecule antagonists of the sonic hedgehog signaling (Shh) pathway - cell viability counter screen (AID 1259367); also: nearly all actives have a fitted effect of over 55% in size
# In short: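 Cytotoxicity was assessed in parallel with Shh reporter activity by measuring live-cell protease fluorescence (CellTiter-Fluor) in NIH/3T3 cells stably carrying Gli1-Luc, treated with compound under conditioned medium stimulation for 23 hr plus 1 hr reagent incubation.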
# [15] = biological target: Glucocorticoid receptor (Homo sapiens) (UniProt P04150); test: qHTS assay to identify small molecule agonists of the glucocorticoid receptor (GR) signaling pathway (AID 720691; active = well fitted activation curve with a large enough effect in the signal ratio in the repeat runs, not every such curve was filed as active; inconclusive = weak or mixed curves, or effect the other way; inactive = no such curve, though single readings can be large or run the other way; the % refers to the signal ratio); conditions: GR-bla HeLa, beta-lactamase reporter ratio, 18 h; activation: at 62.4 µM (top of the series) unless noted
# In short: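 Steps: seed GR-bla HeLa cells, incubate 4 h at 37 C/5% CO2; pin-transfer DMSO-dissolved compounds; incubate 18 h at 37 C; add LiveBLAzer B/G FRET substrate; after 2 h at room temperature, measure fluorescence.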
# [16] = qHTS assay to identify small molecule agonists of the TGF-beta/Smad signaling pathway (AID 1346859; active = well fitted activation curve with a large enough effect in the signal ratio in the repeat runs, not every such curve was filed as active; inconclusive = weak or mixed curves; the % refers to the signal ratio)
# In short: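 Screening used HEK 293T SBE-bla cells at 4,000/well. Test agents: 5 hr, 37 C. Detection: FRET substrate, 2 hr RT, then excitation 405 nm with emissions at 460 and 530 nm.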
# [17] = qHTS assay for small molecule agonists of the antioxidant response element (ARE) signaling pathway - cell viability counter screen (AID 743203; calls by dose curve; also: nearly all actives have a fitted effect of over 55% in size; also: potency is read from the fitted curve at half-maximal effect); conditions: ARE-bla HepG2 viability, CellTiter-Glo luminescence, 16 h; viability change, negative = cytotoxic: at 73.3 µM (top of the series)
# In short: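 Cytotoxicity was tested in parallel with the ARE reporter screen. ARE-bla HepG2 cells were exposed to compounds for 16 hrs, and viability was taken from CellTiter-Glo luminescence.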
# [18] = Caspase-3/7 induction in HepG2 cells by small molecules, qHTS cell viability counter screen (AID 1346981); also: nearly all actives have a fitted effect of over 30% in size
# In short: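 Cell viability is measured as a cytotoxicity counter screen alongside the Caspase-Glo 3/7 readout in identical wells. Wild-type HepG2 cells are treated with test compounds for 16 hr at 37 C before CellTiter-Fluor addition and a 1-hr incubation.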
# [19] = A CellTox Green Cytotoxicity Assay to monitor cytotoxicity in HepG2 cells - 40 hour (AID 1224879); also: potency is read from the fitted curve at half-maximal effect; nearly all actives have a fitted effect of over 40% in size
# In short: as §1
# Tags tell the direction and shape of the fitted curve or compound fluorescence and quenching.
# Chain of UniProt P03372 (P03372 whole entry, looked up): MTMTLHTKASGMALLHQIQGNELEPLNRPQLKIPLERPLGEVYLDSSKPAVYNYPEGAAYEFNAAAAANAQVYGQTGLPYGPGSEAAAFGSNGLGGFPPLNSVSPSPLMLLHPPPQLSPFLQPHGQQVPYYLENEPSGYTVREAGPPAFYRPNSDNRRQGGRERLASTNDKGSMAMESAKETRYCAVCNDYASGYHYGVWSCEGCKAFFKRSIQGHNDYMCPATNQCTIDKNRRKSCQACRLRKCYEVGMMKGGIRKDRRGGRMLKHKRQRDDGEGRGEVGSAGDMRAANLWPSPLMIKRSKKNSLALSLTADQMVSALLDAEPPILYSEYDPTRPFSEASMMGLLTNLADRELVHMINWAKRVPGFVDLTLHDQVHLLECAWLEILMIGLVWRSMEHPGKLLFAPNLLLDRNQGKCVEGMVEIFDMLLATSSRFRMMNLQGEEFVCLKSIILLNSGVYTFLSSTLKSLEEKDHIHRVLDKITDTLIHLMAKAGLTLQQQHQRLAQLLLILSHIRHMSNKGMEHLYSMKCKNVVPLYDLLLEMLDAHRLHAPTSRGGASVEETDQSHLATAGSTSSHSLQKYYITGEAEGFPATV
# Chain of UniProt P16473 (P16473 whole entry, looked up): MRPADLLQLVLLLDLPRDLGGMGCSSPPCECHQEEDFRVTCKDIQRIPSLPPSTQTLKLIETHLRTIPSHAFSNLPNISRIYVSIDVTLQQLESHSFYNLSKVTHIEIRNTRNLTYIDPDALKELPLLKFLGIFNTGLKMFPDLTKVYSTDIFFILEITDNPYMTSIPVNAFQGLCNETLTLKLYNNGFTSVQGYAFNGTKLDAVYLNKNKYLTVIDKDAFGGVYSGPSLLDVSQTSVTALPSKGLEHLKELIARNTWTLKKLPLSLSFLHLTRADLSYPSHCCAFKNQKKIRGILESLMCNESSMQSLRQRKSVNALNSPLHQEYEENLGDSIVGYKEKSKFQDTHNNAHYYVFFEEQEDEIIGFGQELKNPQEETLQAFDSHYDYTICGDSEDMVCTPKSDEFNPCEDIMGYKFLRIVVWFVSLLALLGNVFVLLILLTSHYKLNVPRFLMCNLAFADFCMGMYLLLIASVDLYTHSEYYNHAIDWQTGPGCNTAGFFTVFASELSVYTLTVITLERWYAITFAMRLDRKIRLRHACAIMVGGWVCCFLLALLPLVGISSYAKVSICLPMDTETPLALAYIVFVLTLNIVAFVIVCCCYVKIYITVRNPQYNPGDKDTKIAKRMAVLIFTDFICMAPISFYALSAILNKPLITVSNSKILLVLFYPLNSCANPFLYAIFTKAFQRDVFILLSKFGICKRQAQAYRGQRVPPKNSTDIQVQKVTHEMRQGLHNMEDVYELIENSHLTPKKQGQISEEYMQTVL
# Chain of UniProt P35869 (P35869 whole entry, looked up): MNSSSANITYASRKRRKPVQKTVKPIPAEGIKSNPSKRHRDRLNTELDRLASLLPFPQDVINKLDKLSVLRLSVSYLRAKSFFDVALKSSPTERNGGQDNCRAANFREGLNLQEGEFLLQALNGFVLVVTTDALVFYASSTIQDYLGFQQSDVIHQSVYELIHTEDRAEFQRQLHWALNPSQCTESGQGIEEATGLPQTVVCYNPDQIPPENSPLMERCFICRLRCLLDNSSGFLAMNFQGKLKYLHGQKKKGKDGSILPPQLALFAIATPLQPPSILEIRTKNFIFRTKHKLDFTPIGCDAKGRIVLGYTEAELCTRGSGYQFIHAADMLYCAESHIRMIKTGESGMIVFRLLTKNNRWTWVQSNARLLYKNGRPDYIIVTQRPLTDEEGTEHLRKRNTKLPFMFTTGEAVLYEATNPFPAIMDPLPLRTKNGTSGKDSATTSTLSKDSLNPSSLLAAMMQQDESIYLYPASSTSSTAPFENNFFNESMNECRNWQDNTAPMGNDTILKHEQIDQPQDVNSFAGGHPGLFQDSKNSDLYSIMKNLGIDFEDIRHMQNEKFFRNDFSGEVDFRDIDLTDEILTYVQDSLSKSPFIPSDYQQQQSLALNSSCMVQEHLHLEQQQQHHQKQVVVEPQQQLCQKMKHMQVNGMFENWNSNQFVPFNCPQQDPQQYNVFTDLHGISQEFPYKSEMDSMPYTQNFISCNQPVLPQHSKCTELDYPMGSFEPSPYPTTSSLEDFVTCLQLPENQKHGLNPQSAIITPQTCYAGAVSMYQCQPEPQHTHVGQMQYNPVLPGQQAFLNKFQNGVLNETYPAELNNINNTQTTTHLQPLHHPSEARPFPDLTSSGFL
# Chain of UniProt P04150 (P04150 whole entry, looked up): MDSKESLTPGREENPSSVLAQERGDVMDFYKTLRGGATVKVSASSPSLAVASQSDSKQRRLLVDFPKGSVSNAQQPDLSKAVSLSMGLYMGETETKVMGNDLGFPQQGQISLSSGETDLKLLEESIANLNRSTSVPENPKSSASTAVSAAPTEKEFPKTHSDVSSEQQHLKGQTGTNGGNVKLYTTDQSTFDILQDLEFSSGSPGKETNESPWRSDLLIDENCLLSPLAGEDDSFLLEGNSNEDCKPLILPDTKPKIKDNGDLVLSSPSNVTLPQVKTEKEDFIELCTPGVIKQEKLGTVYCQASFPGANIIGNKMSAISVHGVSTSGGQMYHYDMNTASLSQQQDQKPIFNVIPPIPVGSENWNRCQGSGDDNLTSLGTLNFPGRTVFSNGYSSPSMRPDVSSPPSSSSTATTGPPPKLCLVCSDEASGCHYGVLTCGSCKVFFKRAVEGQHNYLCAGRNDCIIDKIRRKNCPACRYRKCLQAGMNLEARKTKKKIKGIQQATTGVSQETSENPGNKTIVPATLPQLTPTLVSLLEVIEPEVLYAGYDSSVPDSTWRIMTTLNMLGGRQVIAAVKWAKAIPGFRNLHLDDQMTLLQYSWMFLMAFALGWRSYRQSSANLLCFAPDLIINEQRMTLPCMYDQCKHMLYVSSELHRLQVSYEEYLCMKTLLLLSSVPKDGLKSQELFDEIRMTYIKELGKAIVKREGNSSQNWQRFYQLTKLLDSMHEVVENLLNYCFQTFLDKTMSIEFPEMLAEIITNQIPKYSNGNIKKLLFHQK
# Chain of UniProt P10275 (P10275 whole entry, looked up): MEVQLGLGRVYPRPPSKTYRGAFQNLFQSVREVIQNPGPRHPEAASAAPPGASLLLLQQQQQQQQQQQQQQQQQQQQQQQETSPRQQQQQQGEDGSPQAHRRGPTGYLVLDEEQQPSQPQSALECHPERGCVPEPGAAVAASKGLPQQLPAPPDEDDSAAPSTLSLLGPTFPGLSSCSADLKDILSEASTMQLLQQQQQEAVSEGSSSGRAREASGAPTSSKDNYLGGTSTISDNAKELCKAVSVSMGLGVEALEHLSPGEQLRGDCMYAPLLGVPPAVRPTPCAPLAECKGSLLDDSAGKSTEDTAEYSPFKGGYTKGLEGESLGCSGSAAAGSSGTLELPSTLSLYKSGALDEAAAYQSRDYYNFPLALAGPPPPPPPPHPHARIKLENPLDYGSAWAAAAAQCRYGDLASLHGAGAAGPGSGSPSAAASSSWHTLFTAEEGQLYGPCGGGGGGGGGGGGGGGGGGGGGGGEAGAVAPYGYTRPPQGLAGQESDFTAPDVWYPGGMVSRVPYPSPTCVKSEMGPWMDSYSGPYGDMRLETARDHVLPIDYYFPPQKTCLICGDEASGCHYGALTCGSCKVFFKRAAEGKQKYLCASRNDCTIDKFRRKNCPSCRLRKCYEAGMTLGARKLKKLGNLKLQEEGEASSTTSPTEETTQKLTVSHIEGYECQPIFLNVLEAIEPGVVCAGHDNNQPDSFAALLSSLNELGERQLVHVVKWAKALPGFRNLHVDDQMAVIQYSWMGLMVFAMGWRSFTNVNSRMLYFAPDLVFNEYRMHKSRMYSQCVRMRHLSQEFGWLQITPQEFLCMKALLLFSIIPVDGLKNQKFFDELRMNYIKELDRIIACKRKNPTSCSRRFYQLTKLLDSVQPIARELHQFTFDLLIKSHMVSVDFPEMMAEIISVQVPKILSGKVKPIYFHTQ
smiles,measurement,setting,value
Cc1ccccc1CO[C@@H]1C[C@@]2(C(C)C)CC[C@]1(C)O2,Potency,[1],inactive
same,Potency,[2],"inconclusive: 24.3 µM [inhibitor, partial curve, poor fit]"
same,Potency,[3],inconclusive: 68.6 µM [cytotoxic]
same,Potency,[4],"inconclusive: 6.11 µM [inhibitor, full curve]"
same,Potency,[5],"inconclusive: 54.9 µM [activator, single point]"
same,Potency,[6],inactive
C=C(Cl)Cl,Potency,[7],inactive
O=C(O)CF,Potency,[8],"inconclusive: 19.5 µM [activator, partial curve]"
same,Potency,[9],active: 19.5 µM
CCc1ccc(C2CCNCC2)cc1,activation,[4],inconclusive: 28.1% [at 42.5 µM]
CCCCCCC(=O)CCCCCC/C=C/C[C@@H](O)[C@H](O)[C@@](N)(CO)C(=O)O,Potency,[2],inactive
same,Potency,[7],inactive
same,Potency,[8],"inconclusive: 6.57 µM [activator, single point]"
Nc1ncn[nH]1,Potency,[5],inactive
N#Cc1ccc(N(CC(N)=O)CC(F)(F)F)cc1C(F)(F)F,Potency,[10],inactive
same,Potency,[11],inactive
O=C(Cl)c1ccccc1F,Potency,[12],inactive
same,Potency,[2],inactive
C[C@]1(O)CC[C@H]2[C@@H]3CCC4=CC(=O)CC[C@]4(C)[C@@]3(F)[C@@H](O)C[C@@]21C,Potency,[5],"inconclusive: 1.96 µM [activator, partial curve, poor fit]"
same,Potency,[13],"inconclusive: 49.3 µM [rising, single point]"
CN1CCN(C(=O)O[C@H]2c3nccnc3C(=O)N2c2ccc(Cl)cn2)CC1,Potency,[14],inactive
CCOC(=O)CC(SP(=O)(OC)OC)C(=O)OCC (configuration not stated),Potency,[3],inactive
same,Potency,[4],inactive
CCC(CC)(CNC(=O)CCCO)c1cccc(OC)c1,Potency,[3],inactive
C(CCOCC1CO1)COCC1CO1 (configuration not stated),Potency,[15],inactive
same,"activity, negative = inhibition",[10],inconclusive: 32.6%
same,Potency,[16],inactive
Cc1ccc2cc(C)ccc2c1,Potency,[17],inactive
same,Potency,[14],inactive
same,Potency,[6],inactive
CC(C)(N)Cc1ccccc1Cl,Potency,[17],"inconclusive: 0.473 µM [rising, full curve, poor fit]"
same,Potency,[9],inactive
same,Potency,[18],inactive
O=C1Nc2ccc(Cl)cc2C(c2ccccc2)=NC1O (configuration not stated),Potency,[2],"inconclusive: 33.5 µM [inhibitor, single point] and inconclusive: 48.5 µM [inhibitor, partial curve] and inconclusive: 58 µM [inhibitor, partial curve, poor fit]"
same,Potency,[4],inactive
CCCOC(=O)Cc1ccc(OCC(=O)N(CC)CC)c(OC)c1,Potency,[12],inactive
same,Potency,[11],"inconclusive: 33.5 µM [activator, single point]"
C=C(C)C(=O)OCC(CC)CCCC (configuration not stated),Potency,[17],"inconclusive: 1.93 µM [cytotoxic, full curve, poor fit]"
same,Potency,[3],"inconclusive: 62.3 µM [cytotoxic, partial curve, poor fit]"
same,Potency,[5],"inconclusive: 39.6 µM [activator, partial curve, poor fit]"
same,Potency,[19],"inconclusive: 49.9 µM [activator, single point]"
CCOP(=S)(OCC)SCCSCC,Potency,[4],"inconclusive: 7.94 µM [inhibitor, full curve]"
same,activation,[4],inconclusive: -38.8% [at 42.5 µM]
CC1CC(=O)O1 (configuration not stated),Potency,[7],inactive
CC(=O)CN(CC(C)=O)N=O,Potency,[15],inactive
same,Potency,[10],inactive
same,Potency,[3],inactive
